Paper PMC6602471
This is one part of the list. At the low end of the ranking the order means little.

target: T1, ELK1 (UniProt P19419); test: custom PBM; conditions: custom protein-binding microarray; buffer, salt, pH and temperature not stated; high values mean tight binding; double strand, one strand shown
T1 sequence: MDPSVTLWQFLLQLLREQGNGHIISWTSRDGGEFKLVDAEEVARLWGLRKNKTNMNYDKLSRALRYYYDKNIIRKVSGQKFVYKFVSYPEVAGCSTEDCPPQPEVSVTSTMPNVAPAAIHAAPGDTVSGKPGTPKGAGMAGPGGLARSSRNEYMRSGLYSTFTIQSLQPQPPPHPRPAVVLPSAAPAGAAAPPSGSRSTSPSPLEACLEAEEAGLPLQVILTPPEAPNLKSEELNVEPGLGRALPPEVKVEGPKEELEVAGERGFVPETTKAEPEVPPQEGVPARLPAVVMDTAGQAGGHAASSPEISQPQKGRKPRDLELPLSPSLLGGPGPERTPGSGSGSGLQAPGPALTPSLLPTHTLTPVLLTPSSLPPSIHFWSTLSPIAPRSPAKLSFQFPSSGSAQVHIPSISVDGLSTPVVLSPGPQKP

Sequence | binding signal (log fluorescence intensity)
TCCGGCTACCAGCTCCACACACTTCAGGCCTTGTAGGTCTTGATTCGCTTGACGCTGCTG | 8.94
TAAAGGGATGACGGTTGTGGTAGTTCCGGGTATTAAGTCTTGATTCGCTTGACGCTGCTG | 11
GGAAAAAGGCCCAGGGTAACACCGGAAGTGGGCTTCGTCTTGATTCGCTTGACGCTGCTG | 11.1
TGTCGGGTTAGGGAATGTAGATCACGTGAATGAAAAGTCTTGATTCGCTTGACGCTGCTG | 8.85
GGAAAAAGGCCCAGGGTCACACCGGAAGTGGGCTTAGTCTTGATTCGCTTGACGCTGCTG | 10.9
CACAATTTTTACAGTAATGAAGCACGCGTAACTCCTGTCTTGATTCGCTTGACGCTGCTG | 8.77
GCTGCTGCGGTTCATACCCCACCGGATGTGACCCCGGTCTTGATTCGCTTGACGCTGCTG | 10.3
CTGGGATTTGACCCAACTCTGCCACGTGGGTCGTTTGTCTTGATTCGCTTGACGCTGCTG | 9.02
CTGGGACTTGACCCAACTCTGCCTCGTGGGTCGTTTGTCTTGATTCGCTTGACGCTGCTG | 8.82
GTGTATAGGATCCCAACCAACACACGTGTTAAAATGGTCTTGATTCGCTTGACGCTGCTG | 8.81
TGTCGGGTAAAGGAATGTAGATCACGTGAATGAAAAGTCTTGATTCGCTTGACGCTGCTG | 8.9
GGAAAAAGGCCCAGGGTAACACCGGTAGTGGGCTTAGTCTTGATTCGCTTGACGCTGCTG | 9.4
CAGCAAAGGACTTCTTCCCTGAAGCAATTGATAACCGTCTTGATTCGCTTGACGCTGCTG | 8.93
TCCGGCTACCAGCTCCTCCCACTTCAGGCCTTGTAGGTCTTGATTCGCTTGACGCTGCTG | 8.94
CGGAAGTGTCGTAAACGTCGGATATCCGGTTTTTCTGTCTTGATTCGCTTGACGCTGCTG | 12.5
GCTGCTGCGATGCATACCCCACCGGATGTGACCCCGGTCTTGATTCGCTTGACGCTGCTG | 10.3
TACTGACTTAGATATGCGAATGCACATGAATAGACCGTCTTGATTCGCTTGACGCTGCTG | 8.89
CAGCATAGGACTTCTTCCCTGTAGCAATTGATAACCGTCTTGATTCGCTTGACGCTGCTG | 8.93
TACTGACTTATATATGCGAATGCAAATGAATAGACCGTCTTGATTCGCTTGACGCTGCTG | 8.75
CGGAAGTGTCGTAAACGTCGGTTATCCGGTTCTTCTGTCTTGATTCGCTTGACGCTGCTG | 10.1
AGGAAGTGTCGTAAACGTCGGATATCCGGTTCTTCTGTCTTGATTCGCTTGACGCTGCTG | 12.3
TACTGACTTATATATGCGAATGCACATGAGTAGACCGTCTTGATTCGCTTGACGCTGCTG | 8.82
GATTAATTTCTGCGCTTATTCGCACGTGCCATAACAGTCTTGATTCGCTTGACGCTGCTG | 8.83
GGAAAAAGGCCCAGGGTAACACCGGAAGTGGGCTTAGTCTTGATTCGCTTGACGCTGCTG | 11
TGTCGGGTAAGGGAATGTAGATCATGTGAATGAAAAGTCTTGATTCGCTTGACGCTGCTG | 8.94
GTGTATAGGATCCCCTCCAACACACGTGTTAAAATGGTCTTGATTCGCTTGACGCTGCTG | 8.91

Sequence | binding signal (log fluorescence intensity)
GATTAATTTCTGCCCTTATTTGCACGTGCCATAACAGTCTTGATTCGCTTGACGCTGCTG | 8.84
TACTGACTTATATTTGCGAATGCACATGAATAGACCGTCTTGATTCGCTTGACGCTGCTG | 8.81
GCTGCTGCGGTGCATACGCCACCGGATGTGACCCCGGTCTTGATTCGCTTGACGCTGCTG | 10.4
GTGTATAGGATCCCATGCAACACACGTGTTAAAATGGTCTTGATTCGCTTGACGCTGCTG | 8.85
TACCGACTTATATATGCGAATGCACATGAATAGACCGTCTTGATTCGCTTGACGCTGCTG | 8.82
GATTAATTTCTGACCTTATTCGCACGTGCCATAACAGTCTTGATTCGCTTGACGCTGCTG | 8.96
TGTCGGGTAAGGGAATGAAGATCACGTGAATGAAAAGTCTTGATTCGCTTGACGCTGCTG | 8.86
TCCGGCTACCAGCTCCACCCACTTGAGGCCTTGTAGGTCTTGATTCGCTTGACGCTGCTG | 8.87
TGTCGGGTAAGGGAATGTAGATCACGTGAATGAAATGTCTTGATTCGCTTGACGCTGCTG | 8.86
GCTGCTGCGGTGCATACCCCACCTGATGTGACCCCGGTCTTGATTCGCTTGACGCTGCTG | 8.92
TAAAGGGAAGACTGTTGTGGTAGTTCCGGGTATTAAGTCTTGATTCGCTTGACGCTGCTG | 11
TACTGACTTATATATGCGAATGCCCATGAATAGACCGTCTTGATTCGCTTGACGCTGCTG | 8.84
CTGGGACTTGACCCAACTCCGCCACGTGGGTCGTTTGTCTTGATTCGCTTGACGCTGCTG | 9.02
GCTGCTGCGGTGCATACCCCACCGCATGTGACCCCGGTCTTGATTCGCTTGACGCTGCTG | 8.99
CTGGGACTGGACCCAACTCTGCCACGTGGGTCGTTTGTCTTGATTCGCTTGACGCTGCTG | 8.71
GATTAATTTCTGCCCTTATTCGCACGTGCCATAAAAGTCTTGATTCGCTTGACGCTGCTG | 8.8
TACTGAATTATATATGCGAATGCACATGAATAGACCGTCTTGATTCGCTTGACGCTGCTG | 8.87
CTGGGACTTGACCCAACTCTGCCACGTGGTTCGTTTGTCTTGATTCGCTTGACGCTGCTG | 8.8
CTGGGACTTGACCCAACTTTGCCACGTGGGTCGTTTGTCTTGATTCGCTTGACGCTGCTG | 8.98
TAAAGGGAAGACGGTTTTGGTAGTTCCGGGTATTAAGTCTTGATTCGCTTGACGCTGCTG | 11.4
CAGCATAGGACTTCTTCCCTTAAGCAATTGATAACCGTCTTGATTCGCTTGACGCTGCTG | 8.9
CACAATTTTTACAGTAATGTAGCACGCATAACTCCTGTCTTGATTCGCTTGACGCTGCTG | 8.9
CAGCATAGGACTTCTGCCCTGAAGCAATTGATAACCGTCTTGATTCGCTTGACGCTGCTG | 8.86
GCTGCTGCGGTGCATACCCCACCAGATGTGACCCCGGTCTTGATTCGCTTGACGCTGCTG | 8.86
TGTCGGGGAAGGGAATGTAGATCACGTGAATGAAAAGTCTTGATTCGCTTGACGCTGCTG | 8.86
CACTATTTTTACAGTAATGTAGCACGCGTAACTCCTGTCTTGATTCGCTTGACGCTGCTG | 8.94
